# Experimental data taken from article PMC4336329 (PLoS ONE, 2015).
# Out of some 310,000 compounds screened, about 2,200 (0.71%) showed an effect of 50% or more. Effects have a minus sign here. This is one part of the list.
# Target: human ether-à-go-go-related gene (hERG) potassium channel (human, UniProt Q12809)
# Test: primary screen, population patch clamp on CHO cells stably expressing hERG
# Chain of human ether-à-go-go-related gene (hERG) potassium channel (Q12809 whole entry, looked up): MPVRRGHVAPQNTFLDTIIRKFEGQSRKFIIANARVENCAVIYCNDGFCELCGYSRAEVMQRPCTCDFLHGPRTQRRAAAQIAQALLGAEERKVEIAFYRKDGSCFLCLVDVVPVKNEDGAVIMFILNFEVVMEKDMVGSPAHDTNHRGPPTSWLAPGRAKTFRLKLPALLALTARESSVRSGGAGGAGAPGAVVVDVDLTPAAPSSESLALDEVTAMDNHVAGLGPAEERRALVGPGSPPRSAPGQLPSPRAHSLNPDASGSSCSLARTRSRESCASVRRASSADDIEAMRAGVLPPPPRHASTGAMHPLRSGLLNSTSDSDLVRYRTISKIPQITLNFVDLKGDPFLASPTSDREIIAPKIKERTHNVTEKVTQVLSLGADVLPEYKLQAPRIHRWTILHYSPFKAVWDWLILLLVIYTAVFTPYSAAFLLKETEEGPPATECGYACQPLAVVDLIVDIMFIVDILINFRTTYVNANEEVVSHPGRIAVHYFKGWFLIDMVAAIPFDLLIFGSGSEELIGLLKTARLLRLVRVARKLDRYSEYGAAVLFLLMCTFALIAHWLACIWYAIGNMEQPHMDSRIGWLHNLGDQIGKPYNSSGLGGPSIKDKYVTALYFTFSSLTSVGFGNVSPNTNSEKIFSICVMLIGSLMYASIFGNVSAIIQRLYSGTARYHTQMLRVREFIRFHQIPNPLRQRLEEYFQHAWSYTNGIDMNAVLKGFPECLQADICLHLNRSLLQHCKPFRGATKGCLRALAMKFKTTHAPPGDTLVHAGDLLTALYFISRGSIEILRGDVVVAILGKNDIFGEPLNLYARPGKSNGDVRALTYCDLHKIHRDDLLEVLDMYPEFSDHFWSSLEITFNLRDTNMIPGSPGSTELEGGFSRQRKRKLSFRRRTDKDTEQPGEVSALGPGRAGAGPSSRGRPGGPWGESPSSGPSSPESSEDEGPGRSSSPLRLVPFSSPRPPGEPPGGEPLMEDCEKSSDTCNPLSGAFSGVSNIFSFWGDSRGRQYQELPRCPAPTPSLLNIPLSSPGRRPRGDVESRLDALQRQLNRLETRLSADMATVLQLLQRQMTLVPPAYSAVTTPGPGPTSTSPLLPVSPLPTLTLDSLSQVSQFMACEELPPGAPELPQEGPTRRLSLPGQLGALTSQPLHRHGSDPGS
row,SMILES,"hERG current change (%, negative = inhibition) at 1uM [%]"
1,COc1ccc(Cl)cc1NC(=O)COC(=O)c1ccc(Cl)nc1,-0.707
2,CCc1ccccc1NC(=O)CSc1n[nH]c(-c2cccnc2)n1,2.48
3,O=C(CN1C(=O)S/C(=C\C=C\c2ccccc2)C1=O)N1CCCCC1,11.8
4,CCOC(=O)c1c(OCCO)noc1N,13.7
5,CC(=O)c1coc2ccc(OCC(=O)O)cc12,-0.294
6,CCOC(=O)C(NC(C)=O)C(=O)O (centres unmarked),6.58
7,Cn1c(SCC(=O)N2CCCC2=O)nc2ccccc21,18.4
8,COc1ccc(NC(=O)c2cccc(OC(F)F)c2)cc1Cl,-9.13
9,CN(C(=O)CSc1nc(-c2ccc(C(C)(C)C)cc2)c(C#N)c(=O)[nH]1)C1CCCCC1,13
10,COc1ccc(CN(C)CC(=O)NC(=O)Nc2ccccc2F)cc1,3.94
11,CCC1CCCCN1CCCNC(=O)CCNC(=O)Cn1cnc2ccccc2c1=O (centres unmarked),10.3
12,CC/C(O)=C1\C(=O)CCCC1=NCc1nc2ccccc2[nH]1,7.75
13,Cc1ccc(-c2c3c(=O)n(C)c(=O)n(C)c3cn2CCCN2CCOCC2)cc1,9.2
14,Cc1ccc(C(=O)OC(C)C(=O)Nc2ccc(S(N)(=O)=O)cc2)cc1S(=O)(=O)N1CCOCC1 (centres unmarked),0.0081
15,CCc1cccc(CC)c1NC(=S)NCCc1ccc(O)c(O)c1,9
16,Cc1ccc(C(c2nnnn2CC2CCCO2)N2CCN(Cc3ccccc3)CC2)cc1 (centres unmarked),-45.7
17,Cc1ccc(C)c(OCCC(=O)OCC(=O)NC2CCS(=O)(=O)C2)c1 (centres unmarked),10.7
18,COc1ccc(C(C(=O)NC2CCCCC2)N(Cc2ccco2)C(=O)c2ccccn2)c(OC)c1 (centres unmarked),6.08
19,CC(C)NC(=O)c1cc(-c2ccc(Br)cc2)on1,-2.63
20,c1ccc(-c2nnc3sc(-c4csc5c4CCCC5)nn23)cc1,4.3
21,O=C(O)c1cccc(C(=O)c2cccc3ccccc23)c1,5.51
22,COc1ccc(C(=O)c2ccc(N3CCN(C4CC(=O)NC4=O)CC3)cc2)cc1F (centres unmarked),0.434
23,Cc1c(C(=O)O)c2cc(O)ccc2n1-c1ccccc1,-0.33

row,SMILES,"hERG current change (%, negative = inhibition) at 1uM [%]"
1,CC1CCCCN1C(=O)CSc1nnc(-c2cccnc2)o1 (centres unmarked),16.2
2,CN(C(=O)c1ccc([N+](=O)[O-])cc1)c1ccccc1C(=O)NCc1ccccc1,14.1
3,COc1cc(OC)cc(C(=O)n2nc(C)cc2C)c1,-0.526
4,CC(=O)c1cn(CC(=O)NCCc2c[nH]c3ccccc23)c2ccccc12,7.64
5,CC(C)OCCCNc1nc(-c2ccccc2)nc2ccccc12.Cl,10.2
6,CCCCc1nc2cc(C(=O)NC3CCOC(C)(C)C3)ccc2o1 (centres unmarked),11.7
7,COc1ccccc1CN1C(=O)[C@@H]2C(CCC(N)=O)NC3(C(=O)Nc4c3ccc(Cl)c4C)[C@@H]2C1=O (some centres unmarked),1.91
8,COc1ccc(C2CC(c3c(-c4ccccc4)c4cc(Cl)ccc4[nH]c3=O)=NN2S(C)(=O)=O)cc1OC (centres unmarked),8.1
9,COc1ccc(-c2oc3ncnc(NCCCN(C)C)c3c2-c2ccc(OC)cc2)cc1,4.28
10,CC(=O)C1C(=O)CC(C)(O)C(C(C)=O)C1c1ccc(N(C)C)cc1 (centres unmarked),13.7
11,COc1cc(/C=N/NC(=O)CCc2n[nH]c(=O)[nH]c2=O)ccc1O,6.81
12,CC1(C)CC(CC(=O)O)(c2ccc(F)cc2)CCO1 (centres unmarked),8.39
13,NC(=O)c1cccnc1Oc1ccc(Cl)cc1,9.26
14,CCCN1C=CC(=C/C=C(\C#N)C(=O)OCC)C=C1,-1.45
15,COc1ccc(-n2ncc3c2CC(C)(C)CC3NC(=O)C2CCN(C(C)=O)CC2)cc1 (centres unmarked),18.3
16,COc1cc([N+](=O)[O-])ccc1NC(=O)CSc1n[nH]c(C(C)C)n1,8.6
17,O=C(NC1CCCC1)C(c1ccncc1)N(C(=O)Cc1cccs1)c1cccc(F)c1 (centres unmarked),6.68
18,CSc1nccc(Oc2ccccc2Cl)n1,10.4
19,Fc1cc(F)c(C2SCCN2C(=S)Nc2cccc(C(F)(F)F)c2)c(F)c1 (centres unmarked),16.3
20,Cc1cc(N=Cc2c(O)n(-c3cccc(Cl)c3)c(=O)c3ccccc23)no1,8.47
21,CC(C)N1CCCC(CNC(=O)CCc2nnc(CCCCc3ccccc3)o2)C1 (centres unmarked),15.6
22,CCN(CC)S(=O)(=O)c1ccc(C(=O)Nc2nnc(C(C)C)s2)cc1,-0.0321
23,CC(=O)Nc1c(NC(C)C)c2ccccc2oc1=O,13.3

row,SMILES,"hERG current change (%, negative = inhibition) at 1uM [%]"
1,O=C1CCCN1CCC(=O)N1CCCC(CO)(Cc2ccccc2)C1 (centres unmarked),30.9
2,CCOC(=O)c1cnc(SC)nc1Sc1ccccc1,-7.02
3,Cc1ccc(S(=O)(=O)N(Cc2ccccc2)c2ccccc2C(=O)Nc2ccccc2C(=O)NCc2ccco2)cc1,5.5
4,O=S(=O)(Cc1ccccc1)N1CCN(Cc2ccc3c(c2)OCO3)CC1,4
5,COc1ccc(CC(=O)N2CCN(c3ccccc3F)CC2)cc1OC,-0.371
6,COc1ccc(CC(=O)n2nc(-c3cccnc3)nc2N)cc1,-1.12
7,Cc1ccc(C(=O)NCCc2nc3ccccc3[nH]2)cc1[N+](=O)[O-],0.737
8,C=CCN(c1ccc(C(=O)N(CC)CC)cc1)S(C)(=O)=O,0.31
9,COc1ccccc1Oc1ccc(-c2cnc3ccccc3n2)cc1[N+](=O)[O-],15.4
10,C#CCOc1c(Br)cc(/C=C2/C(=O)ON=C2C)cc1OCC,17.3
11,COc1ccc(CCNC(=O)N[C@@H](Cc2ccccc2)C(=O)O)cc1,17.3
12,COC(=O)c1ccc(-c2csc(NC(=O)c3ccc(S(=O)(=O)N4CCc5ccccc5C4)cc3)n2)cc1,5.62
13,CN=C1NN=C(c2cc(C)n(-c3ccc(Cl)cc3)c2C)CS1,12.7
14,Nn1c(SCC(=O)NCc2ccccc2)nnc1C1CC1,3.23
15,C/C(=N/NC(N)=S)c1ccccc1[N+](=O)[O-],6.12
16,COC(=O)c1c(-c2ccccc2)csc1N1C(=O)Nc2ccccc2N1O,14.6
17,O=C(Nc1cccc([N+](=O)[O-])c1)ONC1=NCCCCC1,-2.5
18,COc1ccc(-n2c(SCC(=O)N3CCOCC3)nc(O)cc2=O)cc1,15
19,CCOC(=O)Cc1csc(NC(=O)COc2ccc(OC)cc2)n1,-1.79
20,C[C@@H]1C[C@@H]2O[C@H]2/C=C\C=C\C(=O)Cc2c(Cl)c(O)cc(O)c2C(=O)O1,17.1
21,COC(=O)C1=C(c2ccc(C(C)=O)cc2)C[C@@H]2CC[C@H]1N2C(=O)N1CCC(O)(c2ccc(Cl)cc2)CC1,-3.23
22,O=C(CSc1nnc(-c2ccc(Cl)cc2Cl)n1C1CCCCC1)N1CCCC1,-2.08
23,CC1(C#N)c2ccccc2C(Br)=CN1C(=O)c1ccccc1 (centres unmarked),2.31

row,SMILES,"hERG current change (%, negative = inhibition) at 1uM [%]"
1,C#CCNC(=O)C1=C[C@H](C2CCCCC2)C[C@H](OCCCCO)O1,9.57
2,Cc1ccc(C(=O)Nc2ncc(Cc3ccc(F)cc3)s2)o1,2.13
3,CCC(C)NS(=O)(=O)c1cc2c3c(c1)CCC(=O)N3CCC2 (centres unmarked),21
4,CCC1=C2CC[C@H]3C(=O)N(c4ccccc4)C(=O)[C@H]3[C@H]2[C@@]2(C)C(=NCc3ccccc3)OC(=O)N2C1=O,11.8
5,CC(/C=N/n1c(-c2ccc(Cl)cc2)n[nH]c1=S)=C\c1ccco1,4.95
6,CC(C)c1ccc(NC(=O)Cn2c(=O)oc3cccnc32)cc1,1.99
7,N#CCC(=O)Nc1ccc(C(=O)OCC(=O)c2ccc3c(c2)NC(=O)CO3)cc1,8.51
8,CCOc1ccc(NC(=O)C/C(N)=N/O)cc1,9.45
9,Cc1ccc(NC(=O)CSc2nc(O)cc(=O)n2C)cc1,7.43
10,CC1C(c2ccccc2)=[N+]([O-])C2(CCCC2)N1O (centres unmarked),9.24
11,Cc1cccc(C)c1NC(=S)N(CCCN1CCCCC1)Cc1ccco1,-6.59
12,COP(=O)(OC)C(NC(=O)C(C)(C)C)=C(Cl)Cl,4.85
13,CC1(C)Cc2c(C#N)c(NCCc3ccccc3)nc(-c3ccco3)c2CO1,9.72
14,Cc1cc(NC(=O)CSc2nccn2-c2cccc(Cl)c2)no1,10
15,C=CCN1C(=O)c2ccccc2NC1c1ccc(Br)s1 (centres unmarked),11.4
16,c1ccc(-c2n[nH]c(-c3ccccn3)n2)nc1,18.1
17,O=C(NCc1ccncc1)c1ccc(NS(=O)(=O)c2cccc([N+](=O)[O-])c2)cc1,22.1
18,COc1ccc(-c2noc(C3CCCN(C(=O)c4ccc(F)cc4)C3)n2)cc1 (centres unmarked),4.85
19,CC(C)CC(=O)NC(=S)Nc1ccc(F)cc1F,2.27
20,N#Cc1nc(COc2ccccc2F)oc1NCc1ccc(F)cc1,4.13
